The campaign covered roughly 310,000 compounds. About 2,200 (0.71%) showed an effect of 50% or more. Effects have a minus sign here. Some of the results follow.
target: human ether-à-go-go-related gene (hERG) potassium channel (human, UniProt Q12809); experiment: primary screen, population patch clamp on CHO cells stably expressing hERG
Sequence (Q12809 whole entry, looked up): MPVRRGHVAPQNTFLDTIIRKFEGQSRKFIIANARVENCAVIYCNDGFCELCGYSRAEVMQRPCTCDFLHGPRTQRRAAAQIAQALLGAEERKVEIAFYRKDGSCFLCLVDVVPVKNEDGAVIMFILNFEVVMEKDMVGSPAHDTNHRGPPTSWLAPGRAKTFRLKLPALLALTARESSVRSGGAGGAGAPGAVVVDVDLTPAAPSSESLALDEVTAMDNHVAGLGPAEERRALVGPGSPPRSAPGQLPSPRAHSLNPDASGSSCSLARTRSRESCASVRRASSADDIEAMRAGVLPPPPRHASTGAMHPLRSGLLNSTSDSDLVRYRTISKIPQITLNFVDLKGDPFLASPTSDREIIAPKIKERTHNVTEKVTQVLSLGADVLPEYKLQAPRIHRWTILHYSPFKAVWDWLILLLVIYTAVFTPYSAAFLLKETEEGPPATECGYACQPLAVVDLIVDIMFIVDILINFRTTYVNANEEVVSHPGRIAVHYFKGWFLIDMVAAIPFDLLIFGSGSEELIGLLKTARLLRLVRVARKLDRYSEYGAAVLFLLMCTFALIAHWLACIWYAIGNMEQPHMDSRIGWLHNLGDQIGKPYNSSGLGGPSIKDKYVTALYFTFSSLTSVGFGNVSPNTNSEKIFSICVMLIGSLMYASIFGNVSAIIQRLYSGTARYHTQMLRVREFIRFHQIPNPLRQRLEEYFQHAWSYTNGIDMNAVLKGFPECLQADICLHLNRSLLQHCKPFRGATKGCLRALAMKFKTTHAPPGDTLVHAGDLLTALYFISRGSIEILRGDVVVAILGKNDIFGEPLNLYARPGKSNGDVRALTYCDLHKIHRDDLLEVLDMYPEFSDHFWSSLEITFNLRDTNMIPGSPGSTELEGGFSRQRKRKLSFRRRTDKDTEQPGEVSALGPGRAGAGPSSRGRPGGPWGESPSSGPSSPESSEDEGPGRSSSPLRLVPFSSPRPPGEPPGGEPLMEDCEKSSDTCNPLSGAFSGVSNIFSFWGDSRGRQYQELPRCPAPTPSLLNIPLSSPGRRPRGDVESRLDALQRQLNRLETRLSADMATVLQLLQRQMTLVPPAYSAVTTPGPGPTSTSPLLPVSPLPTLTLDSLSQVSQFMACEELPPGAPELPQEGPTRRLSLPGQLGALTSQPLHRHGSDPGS

Row | Compound | hERG current change (%, negative = inhibition) at 1uM
1 | Cc1ccc(C(=O)/C=C/c2ccc(-c3ccc(C)cc3)o2)cc1 | 4.98%
2 | CCn1c(COc2cccc(C)c2)nnc1SCC(=O)NC1CCCC1 | 11.6%
3 | NC(=O)CN(c1ccc(Cl)cc1)S(=O)(=O)c1ccccc1 | 3.68%
4 | COc1ccccc1OCc1ccc(C(=O)N(C)c2ccccc2)o1 | 12.1%
5 | COC(=O)c1cn(C(=O)c2cc(C)cc(C)c2)c2ccccc12 | 35.2%
6 | COc1ccc(-n2ncc3c(NC(C)C)ncnc32)cc1 | 7.98%
7 | Cc1ccn2cc(C(=O)NC3CCN(Cc4ccccc4)CC3)nc2c1 | -10.6%
8 | COc1cc(C(=O)NCC(=O)NC(C)CCc2ccccc2)cc(OC)c1OC (stereo not drawn) | 2.59%
9 | CC(NC(=O)c1cc(F)c(F)cc1Cl)C1CC2CCC1C2 (stereo not drawn) | 10.7%
10 | O=C1NC(=O)N(Cc2ccccc2)C(=O)/C1=C\C=C\c1ccco1 | 9.06%
11 | CCCS(=O)(=O)N1CCN(C(=O)c2ccco2)CC1 | 23.7%
12 | Fc1ccc(Cn2c(-c3cscn3)nc3ccccc32)c(Cl)c1 | 15%
13 | O=C(O)c1ccc(-c2nnc(-c3ccc([N+](=O)[O-])cc3)o2)cc1 | 15.8%
14 | Cc1cc(C)nc(-n2nc(C)cc2NC(=O)CN2CCc3ccccc3C2)n1 | -26.4%
15 | COc1cccc(-c2ncc3ccccc3c2COC(=O)c2ccc(F)cc2)c1 | 11.9%
16 | Cc1ccc(-c2nnc3sc(-c4ccncc4)nn23)cc1 | -9.21%
17 | COc1ccc([C@H]2CC(=O)C=C(c3ccccc3C(F)(F)F)C2)cc1 | 10.1%
18 | Cc1nn(-c2ccccc2)c(Cl)c1C(=O)Nc1nnc(C2CCCC2)s1 | 3.92%
19 | O=C1NC(Nc2nc3ccccc3s2)(C(F)(F)F)C(=O)N1C1CCCCC1 (stereo not drawn) | -5.08%
20 | CC(OC(=O)c1cccc([N+](=O)[O-])c1)C(=O)N1CCc2ccccc21 (stereo not drawn) | -10.2%
21 | Cc1nn(C)cc1/C=C1\CCC/C(=C\c2cn(C)nc2C)C1=O | 13.3%
22 | O=C(O)CC12CC3CC(C1)CC(n1ncc(NCc4ccc5c(c4)OCO5)c(Cl)c1=O)(C3)C2 | 13.4%

Row | Compound | hERG current change (%, negative = inhibition) at 1uM
23 | C/C(CC(=O)NC(C)(C)C)=N\NC(=O)c1ccccc1N | 10.5%
24 | CCOCCCNC(=O)c1c(N)n(-c2ccc(S(N)(=O)=O)cc2)c2nc3ccccc3nc12 | 14.1%
25 | NC(=O)c1ncc(C(F)(F)F)cc1Oc1ccc(F)cc1 | 9.89%
26 | COc1ccc(C(=O)O)cc1NCc1cccnc1 | 18.4%
27 | CC(C)NS(=O)(=O)c1ccc(OCC(=O)Nc2cccc3ccccc23)cc1 | 6.78%
28 | COc1cc(/C=N/Nc2ccc(Cl)c(C(=O)O)c2)ccc1OCC(=O)N1C(C)CCCC1C (stereo not drawn) | 11.5%
29 | CCOC(=O)c1c(-c2ccc(C)cc2)csc1NC(=O)c1ccc(N2C(=O)CCC2=O)cc1 | 2.61%
30 | CNC(=O)c1ccc(Nc2nnc(C)c3ccccc23)cc1 | 12.1%
31 | CCN(CC)S(=O)(=O)c1ccc(NC(=O)C2CCCN(C(=O)c3ccc(Cl)cc3)C2)cc1 (stereo not drawn) | 8.79%
32 | CCc1sc(C(=O)NCc2ccccc2)cc1C | 10.7%
33 | O=C(N/N=C/c1ccc(-c2ccc(Cl)c(C(=O)O)c2)o1)c1cc2c(ccc3ccccc32)o1 | 13.2%
34 | O=C(NC(=S)Nc1ccc(CN2CCCCC2)cc1)c1cccc(OCc2ccccc2)c1 | 5.86%
35 | CC(=O)Nc1ccc(S(=O)(=O)Oc2ccc(/C=C3\SC(N)=NC3=O)cc2)cc1 | 14.4%
36 | Cc1ccc([N+](=O)[O-])cc1NC(=O)CN1CCCCC1 | 5.47%
37 | CCc1cc2c(Sc3nc4ccccc4s3)ncnc2s1 | 12.7%
38 | O=C(CN1c2cccc3cccc(c23)S1(=O)=O)Nc1ccc(S(=O)(=O)N2CCOCC2)cc1 | 13.3%
39 | COCc1nnc(NC(=O)CSc2ccc(C)cc2)s1 | 11.7%
40 | CCOC(=O)C1(Cc2cccc(OC)c2)CCN(Cc2ccon2)CC1 | 11.3%
41 | CCOc1ccc(C(=O)NCCC(=O)NCCCC(=O)O)cc1 | 3.78%
42 | COc1ccccc1NC(=S)N(Cc1ccco1)Cc1cc2cc(C)ccc2[nH]c1=O | 6.49%
43 | COc1cccc(CN2CCCCC2c2cccnc2)c1 (stereo not drawn) | 4.38%
44 | CCOc1ccc(N2CC(C(=O)NCCc3c[nH]c4ccc(C)cc34)CC2=O)cc1 (stereo not drawn) | 2.56%

Row | Compound | hERG current change (%, negative = inhibition) at 1uM
45 | Cc1ccc(C(=O)N/C(=C/c2cccs2)C(=O)NCCCn2ccnc2)cc1 | -50%
46 | COc1ccccc1NC(=O)CCc1nc(-c2ccccc2F)no1 | 9.19%
47 | Nc1nonc1-n1nnc(C(=O)N/N=C/c2cc(Br)ccc2O)c1CNc1ccccc1 | 13.2%
48 | CN(C)c1ccc(-n2cccc2/C=C2/SC(=Nc3ccc(F)cc3)NC2=O)cc1 | 9.67%
49 | COc1cccc(C(=O)NC(=S)Nc2ccc3oc(=O)ccc3c2)c1 | 3.99%
50 | S=C(Nc1ccc2c(c1)OCO2)Nc1ccccc1Cl | 11.4%
51 | N#Cc1nc(-c2cccc(Cl)c2)oc1NCc1cccnc1 | -3.83%
52 | CCOC(=O)CSc1nnc(CNC(=O)c2ccco2)n1C | 11.7%
53 | N#CC(C#N)=Cc1cccnc1 | 7.45%
54 | CC(Oc1ccc(Cl)cc1Cl)c1ccnc(N)n1 (stereo not drawn) | 16.2%
55 | CC1=CC(c2ccccc2)n2nc(NC(=O)CCCC(=O)O)nc2N1 (stereo not drawn) | 21.3%
56 | CCC(SC1=NCCS1)C(=O)Nc1ccc(S(N)(=O)=O)cc1 (stereo not drawn) | -0.444%
57 | CCN(CC)C(=O)c1[nH]cnc1C(=O)Nc1ccc(C)cc1 | 16.5%
58 | O=C(CSc1ncn[nH]1)Nc1ccc2c(c1)CCC2 | 0.58%
59 | COc1ccc(C(=O)NC2CCN(C(=S)Nc3ccccc3C)CC2)cc1 | 9.62%
60 | CCc1cccc(NC(=O)c2ccc(CNc3c(N4CCCC4)c(=O)c3=O)cc2)c1 | 12.4%
61 | CCC1(c2ccccc2)NC(=O)N(CC(=O)NCc2ccncc2)C1=O (stereo not drawn) | 18.8%
62 | O=C(Nc1ccc(Cl)cc1)C(c1ccccc1)N(CCO)CCO (stereo not drawn) | -0.602%
63 | Cn1nccc1C(=O)Nc1ccc(S(=O)(=O)N2CCCC2)cc1 | 16.7%
64 | Cc1ccc(OCC(=O)Nc2cccc(S(=O)(=O)N3CCOCC3)c2)c([N+](=O)[O-])n1 | 11.9%
65 | CC(C(=O)NCC1CCCCC1)N1CCN(S(=O)(=O)/C=C/c2ccccc2)CC1 (stereo not drawn) | 8.03%
66 | Cc1c(Cl)cccc1NC(=O)c1ccc(OCC(=O)NCc2ccccc2)cc1 | 11.6%

Row | Compound | hERG current change (%, negative = inhibition) at 1uM
67 | Cc1c(Nc2cc(N3CCCCCC3)c3nonc3c2[N+](=O)[O-])c(=O)n(-c2ccccc2)n1C | 4.47%
68 | Cc1cc(Nc2cccc(Cl)c2)c2ccccc2n1 | -15.9%
69 | CCCC(=O)OCC[N+](C)(C)C.[Cl-] | 8.49%
70 | O=C(Nc1ccc(Cl)cn1)Nc1ccccc1Cl | 11.3%
71 | Cl.O=C(O)c1cccc(Nc2nc(C(F)(F)F)nc3ccccc23)c1 | 25.1%
72 | CN(CC(=O)Nc1ccccc1Br)C(=O)c1cc([N+](=O)[O-])ccc1N1CCOCC1 | 17.8%
73 | CC(C)(C)c1ccc(S(=O)(=O)NCC(=O)Nc2sc3c(c2C(N)=O)CCCC3)cc1 | 11.2%
74 | CC(NCc1cccc(OCc2ccccc2)c1)C(O)c1ccccc1.Cl (stereo not drawn) | -1.76%
75 | CCOC(=O)Cc1nc2nc(C)cc(C)n2n1 | 2.61%
76 | Cc1ccc(OCC(O)CN2CCN(Cc3ccc4c(c3)OCO4)CC2)cc1C.Cl (stereo not drawn) | 5.88%
77 | COc1ccc(C(CC(=O)Nc2ncccc2C)N2Cc3ccccc3C2=O)cc1 (stereo not drawn) | 11.3%
78 | COc1ccc(Cl)cc1NC(=O)CN(C)C(=O)c1ccc(C)s1 | 3.75%
79 | Cc1nc(N2CCCCC2)c2c(C)c(C(=O)Nc3ccccc3C(F)(F)F)sc2n1 | 7.99%
80 | CC(=O)NC(=S)NNC(=O)COc1ccc([N+](=O)[O-])cc1 | 14%
81 | CC(NC(=O)c1ccc(Cn2cc([N+](=O)[O-])cn2)cc1)c1ccccc1 (stereo not drawn) | 4.26%
82 | O=C(NNC(=O)c1cc(Cl)ccc1O)c1cccs1 | 16.2%
83 | O=C1NC(=O)C(CC(=O)N(Cc2ccco2)C2(C(=O)NC3CCCCC3)CCCCC2)N1 (stereo not drawn) | 6.32%
84 | Cc1ccc(NC(=O)c2ccc(S(=O)(=O)NCc3cccnc3)cc2)cc1C | 1.63%
85 | CCC(=O)NNc1ncnc2c1cnn2-c1ccccc1 | 6.46%
86 | COc1cccc(C2=NOC(C(=O)N3CCN(C(=O)c4ccco4)CC3)C2)c1 (stereo not drawn) | -16.3%
87 | Cn1c(=O)c2c(nc(CN3CCN(Cc4ccccc4)CC3)n2Cc2ccc(F)cc2)n(C)c1=O | -38.2%
